In the RNAGym collection of RNA variant scans (doi:10.1093/nar/gkz1192):
The source gives no read counts; variants with many changes may rest on few reads.

B1: CPEB3 Ribozyme (parent)
chain: UAACAGGGGGCCACAGCAGAAGCGUUCACGUCGCAGCCCCUGUCAGAUUCUGGUGAAUCUGCGAAUUCUGCUGUAUAUCUC

Variants of: B1
Assay: self-cleavage, relative activity (ratio to wild type); higher = more cleavage; in vitro, sequencing
Procedure, shortened: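 For each CPEB3 ribozyme variant, relative activity is its cleaved/total read fraction divided by the unmutated ribozyme's. Barcoded error-prone PCR libraries were transcribed by T7 RNA polymerase (5 hours, 37°C) and held in DNase I for 15 min before an EDTA stop, with cleavage occurring throughout. Template-switching reverse transcription and Illumina sequencing were used to read the RNAs. A 5-read minimum applied, and results are the mean of three batches.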

| Variant | self-cleavage |
| --- | --- |
| A5G U54C U72A | 0.61 |
| A5G U58C A64G U67C | 0.16 |
| A5G U60C A64G U78A U80C | 0.04 |
| A5G U60C A75U | 0.52 |
| A5G U60C G61A | 0.31 |
| A5G U60C U67C U69A | 0.18 |
| A5G U60C U69A A77C | 0.09 |
| A5G U60C U72A | 0.26 |
| A5G U60C U72C | 0.13 |
| A5G U66A U72C | 0.34 |
| A5G U67A C71U | 0.22 |
| A5G U67A U80G | 0.39 |
| A5G U69C A75U U78C | 0.21 |
| A5U A13C A21G U31A A64U | 0.14 |
| A5U A13C A45G | 1.02 |
| A5U A13G A18G U58A U60A A64G | 0.09 |
| A5U A13G A21G U58G U66C | 0.22 |
| A5U A13G A35G G63A U69C | 0.34 |
| A5U A13G A56G G70C U74C A75G | 0.2 |
| A5U A13G C40U U54A A65U | 0.14 |
| A5U A13G C50A | 0.94 |

| Variant | self-cleavage |
| --- | --- |
| A5U A13G G16U U80A | 0.26 |
| A5U A13G U41A U58C A64G U72C | 0.08 |
| A5U A13G U69A U76A | 0.7 |
| A5U A13G U72C | 0.99 |
| A5U A13U A18G U48A G63U | 0.41 |
| A5U A13U A20G C32U U43C G61C U80A | 0.1 |
| A5U A13U A20G U43A U54C C68U | 1.11 |
| A5U A13U A21G U25C C29U U41C U74A | 0.13 |
| A5U A13U A45U A65G U78C | 0.19 |
| A5U A13U C17U A21G U31C U60A | 0.15 |
| A5U A13U U26A A47U U51C A56G C79A | 0.11 |
| A5U A13U U26C U41A | 0.28 |
| A5U A13U U51A U54A U74A | 1.2 |
| A5U A13U U54G U60C | 0.49 |
| A5U A13U U72C | 1.09 |
| A5U A15C U41C A57G | 0.61 |
| A5U A15G A21U A35G A77G | 0.38 |
| A5U A15G A35U U41A U54A | 0.12 |
| A5U A15G A47G | 1.01 |
| A5U A15G A47G U54C A56U U67A U78A | 0.25 |
| A5U A15G G63C U74A | 0.88 |

| Variant | self-cleavage |
| --- | --- |
| A5U A15G U25A U26A | 0.62 |
| A5U A15U A21U U25C U48C C79U | 0.44 |
| A5U A15U A35G A47U U72C | 0.92 |
| A5U A15U U60G | 0.4 |
| A5U A18C G42A U60C A64U A75U | 0.07 |
| A5U A18C U43A U78A | 0.19 |
| A5U A18C U54G U60C | 0.34 |
| A5U A18G A20G U48C U49A | 0.31 |
| A5U A18G A20G U51A A64U A75G | 0.14 |
| A5U A18G A35G A57G A64U U78A | 0.57 |
| A5U A18G A35G U54A | 1.24 |
| A5U A18G C40U A45C U58C A77G U80C | 0.05 |
| A5U A18G U41A A57G U72A G73A | 0.1 |
| A5U A18G U41A U48A | 0.39 |
| A5U A18G U41C U49C U78C | 0.3 |
| A5U A18G U41C U72A | 0.47 |
| A5U A18G U48C U51C | 0.37 |
| A5U A18G U76A | 0.86 |
| A5U A18U A28G U31C U51C U66C | 0.08 |
| A5U A18U A45G | 0.49 |
| A5U A18U A47G U69C U80C | 0.52 |

| Variant | self-cleavage |
| --- | --- |
| A5U A18U U25C C81A | 0.36 |
| A5U A18U U41C U58G | 0.33 |
| A5U A18U U80C | 0.68 |
| A5U A20C U60C U69A | 0.2 |
| A5U A20G A28G G42A A56U U69C U78C | 0.09 |
| A5U A20G A35U G52U A64U | 0.16 |
| A5U A20G A57G U58C U67A | 0.11 |
| A5U A20G C32U A35U U43C G52A U60G | 0.08 |
| A5U A20G U26C A57G A77G U80C | 0.21 |
| A5U A20G U48C U49A U69A | 0.39 |
| A5U A20G U54C U69A | 0.47 |
| A5U A20G U58A C62A U69A | 0.22 |
| A5U A20U A21G U41C A45G U58A | 0.11 |
| A5U A20U C32G G36A A45U A47G A65G | 0.12 |
| A5U A20U U54C A57G | 0.24 |
| A5U A21C G33A U43C A47G | 0.16 |
| A5U A21G A35G | 1.19 |
| A5U A21G A35U U69A | 0.19 |
| A5U A21G C50A U76G | 0.43 |
| A5U A21G C50U A65U | 0.12 |
